According to PubChem BioAssay AID686978 (National Center for Advancing Translational Sciences (NCATS), 2013):
Among all 420,000 compounds or so, about 64,000 (15%) were called active. Inconclusive means that the source gave no clear call. Such entries were picked first, then a sample of the others. The call rests on the fitted dose curve; in most records, active means well fitted inhibition curve with a large enough effect; inconclusive means small, poorly fitted or top-dose-only effect; inactive means flat fitted curve, though single readings scatter. No potency is given beside an inconclusive call; the fits are too rough.

Assay: qHTS for Inhibitors of human tyrosyl-DNA phosphodiesterase 1 (TDP1): qHTS in cells in absence of CPT; further: nearly all actives have a fitted effect of over 55% in size
Details: DT40 Tdp1-/- hTDP1 cells, no CPT, ATP luminescence, 48 h; activity change, negative = growth inhibition: at 46.2 µM (top of the series) unless noted
In short: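 Cells were dispensed at 400 per well, compounds added by pin tool, plates incubated ≥48 hr at 37 °C, then CellTiter-Glo added for 30 min at room temperature before luminescence reading. Line: DT40 Tdp1-/- complemented with hTDP1; camptothecin omitted.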
On the % scale 0 is the no-effect control and ±100 the full control effect; potency means the concentration at half of the fitted maximal effect; tags describe the fitted curve by direction and shape.

| Compound | Potency | activity change, negative = growth inhibition |
| --- | --- | --- |
| C=CCN(c1ccc(C(=O)Nc2ccc(NC(C)=O)cc2)cc1)S(C)(=O)=O | active: 23.1 µM | – |
| COc1ccc2cc(CN(CCO)C(=O)c3ccc(Br)cc3)c(=O)[nH]c2c1 | inconclusive [inhibitor, single point] | – |
| O=Cc1ccc(Oc2nc(Cl)ncc2F)cc1 | inconclusive [inhibitor, single point] | – |
| CC(C)(C)NC(=O)C1c2ccccc2OCC(=O)N1Cc1ccc2c(c1)OCO2 (stereo not drawn) | inactive | – |
| COc1ccc(C(C)=O)cc1Cn1c(C)c(C(=O)NCC(C)C)sc1=O | inconclusive [inhibitor, single point] | – |
| COC(=O)c1cc(NC(=O)C2(S(=O)(=O)c3ccc(C)cc3)CC2)cc(C(=O)OC)c1 | inconclusive [inhibitor, partial curve, poor fit] | – |
| O=C(O)CC12CC3CC(C1)CC(n1ncc(NCc4ccc(F)cc4)c(Cl)c1=O)(C3)C2 | inactive | – |
| S=C(NCc1ccco1)Nc1ccc(Cl)c(Cl)c1 | inconclusive [inhibitor, single point] | – |
| CCOC(=O)N1CC=C2C(C#N)=C(N)C(C#N)(C#N)[C@H](c3ccc(OC(C)C)c(OCC)c3)[C@H]2C1 | inconclusive [inhibitor, single point] | – |
| COc1ccc(Br)c(OC)c1C(=O)NC(=O)Nc1nc(C)cc(C)n1 | inactive | – |
| Cc1cc(O)c(C(C)C)cc1NC(=O)c1ccc(Cl)cc1 | inconclusive [inhibitor, partial curve] | – |
| Cc1cc(C)cc(OCC(=O)Nc2nc(-c3ccc(F)cc3)ns2)c1 | inconclusive [inhibitor, partial curve] | – |
| NC(=O)c1cccc(Nc2nc(C(N)CCc3ccccc3)cs2)n1 (stereo not drawn) | active: 2.91 µM | – |
| Cc1ccccc1NC(=O)CSc1c(C(C)C)cnc2c1c(=O)n(C)c(=O)n2C | inconclusive [inhibitor, single point] | – |
| COc1cc(OC)cc(C(=O)NC(=S)NCCc2ccccc2)c1 | – | inconclusive: -33.7% [inhibitor] |
| Cc1ccc2nc(Cl)nc(-c3ccccc3)c2c1 | inconclusive [inhibitor, single point] | – |
| Cc1cc(/C=C2\SC(N)=NC2=O)c(C)n1-c1ccccc1 | inconclusive [inhibitor, partial curve] | – |
| COc1ccc(N(CC(=O)NCCSCc2cccc(Cl)c2)S(C)(=O)=O)cc1Cl | inactive | – |
| C[C@H](O)[C@@H]1C(=O)N2CCc3c([nH]c4ccccc34)[C@@H]2C[C@@H]1N(C)C(=O)Nc1ccc(F)cc1 | inconclusive [inhibitor, partial curve] | – |
| COC(=O)C1(NC(=O)CNC(=O)OCc2ccccc2)CCCC1 | inactive | – |
| CC(NC(=O)CN1C(=O)NC2(CCCC2)C1=O)c1ccc2ccccc2c1 (stereo not drawn) | inactive | – |
| O=C(c1ccc(S(=O)(=O)Nc2ccc(F)cc2)cc1)N1CCN(c2ccccn2)CC1 | active: 18.4 µM | – |
| CC(C)[C@@H]1CC2=C(C(=O)OC(C)(C)O2)[C@H](CCc2ccccc2)O1 | inconclusive [inhibitor, single point] | – |
| Cc1cc(C(=O)Nc2cccc(-c3nc(CNC(=O)c4ccc[n+]([O-])c4)c(C)o3)c2)c(C)o1 | inconclusive [inhibitor, single point] | – |
| Nc1nc(N)nc(-c2ccc(Cl)cc2)n1 | inconclusive [inhibitor, partial curve] | – |

| Compound | Potency | activity change, negative = growth inhibition |
| --- | --- | --- |
| Cc1ccc(F)cc1-c1cc2nc(NCCCN(C)C)n(C)c(=O)c2s1 | active: 16.4 µM | – |
| COc1ccc2[nH]c(=O)c(CN(C)C(=O)C3CCCCC3)cc2c1 | – | inconclusive: -33.8% [inhibitor] |
| O=C(Nc1nc(-c2cccs2)cs1)c1ccc(S(=O)(=O)N2CCCC2)cc1 | inconclusive [inhibitor, single point] | – |
| CCOc1ccccc1NC(=O)CSc1nc2ccccc2nc1N1CCOCC1 | active: 20.6 µM | – |
| COc1ccc(C2C(C(=O)N3CCN(C)CC3)c3ccccc3C(=O)N2C2CCCCC2)cc1 (stereo not drawn) | inactive | – |
| CN(C)C1=NC[C@H](Cc2ccccc2)N1CCc1cccc(F)c1 | inconclusive [inhibitor, single point] | – |
| O=C(CSc1nc2ccccc2s1)N1c2ccccc2Sc2ccc(Cl)cc21 | inconclusive [inhibitor, single point] | – |
| CC(OC(=O)CC1Sc2ccccc2NC1=O)C(=O)N(C)Cc1ccccc1 (stereo not drawn) | active: 20.6 µM | – |
| COc1ccc2c(CC(=O)OCC(=O)N(C)c3c(N)n(Cc4ccccc4)c(=O)[nH]c3=O)coc2c1 | inconclusive [inhibitor, single point] | – |
| CCN(C[C@H]1N[C@@](Cc2ccccc2)(C(=O)OC)[C@H]2C(=O)N(Cc3ccccc3)C(=O)[C@@H]12)C(=O)C1CCCCC1 | active: 13 µM | – |
| CN1CCN(c2ccc(NC(=O)c3sc4ccccc4c3Cl)cc2)CC1 | active: 13 µM | – |
| O=C(c1ccc2ccccc2n1)N1CCN(c2ccccc2O)CC1 | inactive | – |
| CC(C)C(=O)Nc1cc2c(cc1C(=O)c1ccccc1)OCCO2 | inconclusive [inhibitor, single point] | – |
| CCc1ccc2oc(-c3cc(N=Cc4cccc(OC)c4O)ccc3O)nc2c1 | inactive | – |
| CC1(C)CC[C@]2(C(=O)O)CC[C@]3(CO)C(=CCC4[C@@]5(C)C[C@H](O)[C@H](O)[C@@](C)(C(=O)O)C5CC[C@]43C)[C@@H]2C1 (stereo partly drawn) | inactive | – |
| CCCC1(c2ccccc2)NC(=O)N(CC(=O)N(C)Cc2c(F)cccc2Cl)C1=O (stereo not drawn) | inconclusive [inhibitor, single point] | – |
| COc1ccc(CCCc2nnc(SCC(=O)Nc3cc(F)ccc3C)o2)cc1 | active: 11.6 µM | – |
| Cc1ccc(C)n1CCN1CCN(S(=O)(=O)c2ccc(F)cc2F)CC1 | inactive | – |
| CCNC(=O)C1(C)CCCN1C(=O)c1cc(OC)c(OC)c(OC)c1 (stereo not drawn) | inactive | – |
| Cc1cnc(NC(=O)c2cc3c(C)nn(-c4ccccc4)c3s2)s1 | inconclusive [inhibitor, single point] | – |
| COc1ccc(Cn2c(C(=O)O)c(CNCc3ccc(OC)cc3OC)c3ccc(C)cc32)cc1 | active: 9.2 µM | – |
| CCOC(=O)N1CCN(C(=O)c2ccc3c(c2)N(C)C(=O)/C(=C\c2ccc(OCC)c(OC)c2)S3)CC1 | active: 16.4 µM | – |
| COc1ccc(CCN(C)c2ccc(S(=O)(=O)N3CCCC3)cc2[N+](=O)[O-])cc1OC | active: 11.6 µM | – |
| O=c1c2ccccc2nc(-c2ccccc2)n1CCCN1CCOCC1 | inactive | – |
| Cc1cc(C)n(-c2ccc(C(=O)Nc3ccc(S(=O)(=O)N(C)C)cc3)cc2)n1 | active: 23.1 µM | – |

| Compound | Potency | activity change, negative = growth inhibition |
| --- | --- | --- |
| COc1cc2c(C(=O)NCc3ccc4c(c3)OCO4)cn(C)c(=O)c2cc1OC | inconclusive [inhibitor, single point] | – |
| COc1ccc(OC)c(S(=O)(=O)NCCCN2CCOCC2)c1 | inactive | – |
| CCCCc1ccc(S(=O)(=O)NC2CCS(=O)(=O)C2)cc1 (stereo not drawn) | active: 20.6 µM | – |
| COC(=O)c1cccc(Cn2nc(C)c([N+](=O)[O-])c2C)c1 | inconclusive [inhibitor, single point] | – |
| COc1cc(NC(=O)C2CC(=O)N(Cc3ccco3)C2)cc(OC)c1 (stereo not drawn) | inactive | – |
| CC(=O)NC(c1ccc(F)c(F)c1)c1nc(-c2ccc(C)c(C)c2)cs1 (stereo not drawn) | inconclusive [inhibitor, single point] | – |
| CCn1c(SC(C)C(=O)Nc2ccc3c(c2)OCCO3)nnc1C1CC1 (stereo not drawn) | inactive | – |
| CC(C)OCCCN1CC(=O)N2[C@@H](Cc3c([nH]c4ccccc34)C2(C)C)C1=O | inconclusive [inhibitor, single point] | – |
| O=C(CCl)Nc1cc(-c2ccccc2)nn1-c1ccccc1 | active: 3.26 µM | – |
| COc1ccc(C)cc1NC(=O)c1ccc2c(c1)OCO2 | inactive | – |
| c1ccc(CSCCc2ccncc2)cc1 | inactive | – |
| CCN(CC(=O)NCc1ccc(F)cc1)C(=O)CCNS(=O)(=O)c1cccc(C)c1 | inactive | – |
| COc1cccc(C2N=C(c3ccccc3C)NO2)c1OC (stereo not drawn) | inactive | – |
| CN(CCc1nc2ccc(Cl)cc2[nH]1)Cc1nc(CC2CC2)no1 | inconclusive [inhibitor, single point] | – |
| O=C1NC(=O)c2cc(NC(=O)c3cccc4ccccc34)ccc21 | inconclusive [inhibitor, single point] | – |
| Cn1cc(S(=O)(=O)N2CCCC2)cc1C(=O)NCCc1ccccc1 | inconclusive [inhibitor, single point] | – |
| Fc1ccc2cc(-c3ccsc3)ncc2c1 | inactive | – |
| O=c1c(-c2ccc(Cl)cc2)nc2cnc(N3CCNCC3)nc2n1Cc1ccc(F)cc1 | active: 9.2 µM | – |
| CCc1nnc(N/N=C/c2cccs2)n1N | inconclusive [inhibitor, single point] | – |
| COc1cccc(-c2ncc3ccccc3c2COC(=O)c2ccc(Br)cc2)c1 | inconclusive [inhibitor, single point] | – |
| COc1cc(Cl)c(C)cc1NC(=O)CC1Oc2ccccc2NC1=O (stereo not drawn) | inconclusive [inhibitor, single point] | – |
| Cc1cccc(-n2c(C)cc(/C=N/n3cnnc3)c2C)c1 | inconclusive [inhibitor, single point] | – |
| CN(c1ccccc1)S(=O)(=O)c1cccc(NC(=O)c2cncc(Br)c2)c1 | inconclusive [inhibitor, single point] | – |
